Biological target: T1, IL-2Rβ IH-Biotin (biotin-labeled human IL-2Rβ, UniProt P14784 aa27-240, with C-terminal avi tag and His6 tag) (human) (UniProt P14784)
T1 sequence: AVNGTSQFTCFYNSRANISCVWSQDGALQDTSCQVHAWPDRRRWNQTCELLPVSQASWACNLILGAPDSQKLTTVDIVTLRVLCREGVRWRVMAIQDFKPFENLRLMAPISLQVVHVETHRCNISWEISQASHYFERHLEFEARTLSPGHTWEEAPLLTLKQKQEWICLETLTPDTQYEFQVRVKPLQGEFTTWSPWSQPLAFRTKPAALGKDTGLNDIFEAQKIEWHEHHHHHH
Assay: ForteBio BLI, biotinylated receptor on SA sensor, 100 nM IL-2-FC in solution, 1:1 model (avidity)

- Kd: 41 nM
Substance: IL-2^WT-FC fusion protein (IL-2^WT-2*(G4S)-FcLALA) (chain not printed) (Fc fusion; biotin on the avi tag (enzymatic labeling with BirA); other documents disagree on this pair)

From US20230174604A1
